According to PMC4336329 (PLoS ONE, 2015):
Screen size: about 310,000 compounds; about 2,200 (0.71%) showed an effect of 50% or more. The effect is printed as a negative number. Some of the results follow.

Molecular target: human ether-à-go-go-related gene (hERG) potassium channel (human, UniProt Q12809)
Assay: primary screen, population patch clamp on CHO cells stably expressing hERG

Chain of human ether-à-go-go-related gene (hERG) potassium channel (Q12809 whole entry, looked up): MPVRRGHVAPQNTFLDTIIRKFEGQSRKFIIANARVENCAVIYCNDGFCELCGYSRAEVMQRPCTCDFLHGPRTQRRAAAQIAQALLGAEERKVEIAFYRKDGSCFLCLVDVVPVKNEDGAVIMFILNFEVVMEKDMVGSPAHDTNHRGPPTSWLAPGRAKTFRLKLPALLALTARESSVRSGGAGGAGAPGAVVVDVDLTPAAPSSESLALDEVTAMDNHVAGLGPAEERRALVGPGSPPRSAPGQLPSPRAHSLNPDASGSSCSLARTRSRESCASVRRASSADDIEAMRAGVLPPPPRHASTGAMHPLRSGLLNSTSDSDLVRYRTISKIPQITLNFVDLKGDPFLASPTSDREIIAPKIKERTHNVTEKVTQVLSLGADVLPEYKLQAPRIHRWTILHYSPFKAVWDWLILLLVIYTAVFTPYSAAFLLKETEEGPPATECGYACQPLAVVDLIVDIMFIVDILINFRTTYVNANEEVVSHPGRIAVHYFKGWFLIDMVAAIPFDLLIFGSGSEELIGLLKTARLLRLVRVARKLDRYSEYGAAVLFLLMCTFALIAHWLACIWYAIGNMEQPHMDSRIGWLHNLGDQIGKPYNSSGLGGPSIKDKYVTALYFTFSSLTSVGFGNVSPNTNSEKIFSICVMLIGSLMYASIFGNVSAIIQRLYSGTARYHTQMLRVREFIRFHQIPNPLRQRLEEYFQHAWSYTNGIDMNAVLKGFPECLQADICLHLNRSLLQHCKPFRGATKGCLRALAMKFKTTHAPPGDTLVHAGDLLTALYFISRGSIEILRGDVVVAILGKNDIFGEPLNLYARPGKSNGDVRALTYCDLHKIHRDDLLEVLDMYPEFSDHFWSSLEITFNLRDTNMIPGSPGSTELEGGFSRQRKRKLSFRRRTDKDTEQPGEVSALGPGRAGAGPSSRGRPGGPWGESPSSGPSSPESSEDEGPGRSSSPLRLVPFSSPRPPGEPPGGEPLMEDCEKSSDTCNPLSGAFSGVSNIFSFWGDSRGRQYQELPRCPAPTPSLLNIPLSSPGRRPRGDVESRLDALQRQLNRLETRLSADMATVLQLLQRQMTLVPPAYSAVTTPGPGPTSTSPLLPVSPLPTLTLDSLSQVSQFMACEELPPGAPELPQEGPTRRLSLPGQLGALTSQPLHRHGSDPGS

SMILES	hERG current change (%, negative = inhibition) at 1uM
Cc1c(C(c2ccc(F)cc2)c2c(O)c3ccccc3oc2=O)c(=O)n(-c2ccccc2)n1C (centres unmarked)	-3.56%
COc1ccc(N2C(N)=C(C#N)C(c3cccnc3)C3=C2CC(C)(C)CC3=O)cc1 (centres unmarked)	11.6%
Cc1ccc(-c2nnc(SCc3ccc(C#N)cc3)n2Cc2ccco2)cc1	-19.2%
Cc1cccc(OCC(=O)Nc2ccc(NC(=O)c3ccco3)c(C)c2)c1	1.81%
Cc1cc(C)c(NC(=O)CSCc2c(C)noc2C)c(C)c1	17.1%
CCOC(=O)N1CCN(C(=O)c2ccc(Cl)c(NC(=O)c3cccs3)c2)CC1	-1.68%
COc1ccc(-c2csc3ncnc(N4CCN(CCO)CC4)c23)cc1	12.7%
Cl.O=C1C2CCCC1C(N1CCCCC1)CC2 (centres unmarked)	6.91%
O=C(Nc1ccc(F)cc1F)c1c(C(F)(F)F)ccnc1Oc1cccc(C(F)(F)F)c1	12%
COc1ccccc1/C=C/C(=C1/C(=O)N(c2ccccc2)N=C1C)c1ccc(C)cc1	-1.9%
COc1ccc(NC(=O)C2CCCNC2)cc1OCC(C)C (centres unmarked)	12%
COC(=O)c1ccc2[nH]c(CO)c(-c3ccccc3)c2c1	13.2%
NS(=O)(=O)c1ccc(NC(=O)c2ccc(S(=O)(=O)N3CCc4ccccc43)cc2)cc1	4.47%
COc1cnn(-c2ccc(Br)cc2)c(=O)c1SCc1ccccc1	-14%
Cc1cc(N2C(=O)C(=O)/C(=C(/O)c3ccccc3)C2c2cccs2)no1 (centres unmarked)	13.1%
CN(CCCNC(=O)CSc1cc(=O)n(C)c2ccc(Cl)cc12)Cc1ccccc1	-16.3%
O=C1CC2(CCN(C(=O)c3c(F)cccc3F)CC2)Oc2ccccc21	-3.63%
CC(C)NC(=O)c1ccccc1NC(=O)C1CC(=O)N(C(C)C)C1 (centres unmarked)	29.3%
CC1(C)C(c2cccs2)=[N+]([O-])C2(CCCCC/C2=N\NC(N)=O)N1O (centres unmarked)	7.92%
Cn1c(=O)cc(OCC(=O)NC2CCCCC2)c2ccccc21	8.77%
Fc1ccc(-n2nnc(-c3nccs3)n2)cc1	7.22%
COc1cccc(N2CCN(Cc3cccnc3)CC2)c1	0.44%
CCOC(=O)c1c(NC(=O)CCc2ccc(CC)o2)sc(C)c1C	15.6%

SMILES	hERG current change (%, negative = inhibition) at 1uM
Clc1ccccc1Nc1ncnc2c1nnn2Cc1ccccc1	5.79%
CSC1=NC(C)(C)C=C(/C=C/c2c(Cl)cccc2Cl)N1	10.9%
CCCn1c(SCC(=O)NC2CCCCC2)nnc1-c1ccccn1	-2.51%
O=C(O)c1cccc(CSc2nc(-c3ccc(Cl)cc3)cc(C(F)(F)F)n2)c1	-2.91%
CC(=O)Nc1ccc(S(=O)(=O)N2CCN(C3CCCCCCC3)CC2)cc1.O=C(O)C(=O)O	10.3%
CCn1c(SCC(=O)Nc2ccc(C)cc2)nc2nc3c(cc2c1=O)COC(C)(C)C3	-76.5%
CN1CCc2cc3c(c4c2C1Cc1ccccc1-4)OCO3 (centres unmarked)	2.95%
O=C(NCc1ccccn1)C1CCN(S(=O)(=O)c2cc(Cl)ccc2Cl)CC1	8.99%
O=C(CCC(=O)N1CCOc2ccccc21)NCCCN1CCOCC1	13.3%
COc1cc2c(cc1OC)C(C)N(C(=O)c1c(-c3ccccc3)noc1C)CC2 (centres unmarked)	14.1%
COc1ccc([C@@H]2CC(=O)c3c(O)cc(O)cc3O2)cc1O	8.29%
Cc1cc(C)c(NS(=O)(=O)c2ccc3c(c2)NC(=O)CC(=O)N3)c(C)c1	11.7%
CSCCC(=O)N(C)CC1CCN(CCc2cccc(C(F)(F)F)c2)CC1	-27.3%
COc1ccc2[nH]cc(C(=O)CN3CCCCC3)c2c1	9.38%
COc1ccc(Br)cc1/C=N/NC(=O)c1ccc(OC)c(OC)c1	12.6%
CCC(C)C(=O)Nc1ccc(OC)cc1OC (centres unmarked)	14.4%
CCOC(=O)COn1c(=O)c(-c2ccc(OCC)cc2)[n+]([O-])c2ccccc21	15.1%
CC(=O)c1cccc(NC(=O)CCN2C(=O)C3C4CCC(C4)C3C2=O)c1 (centres unmarked)	0.223%
CCCCC(=O)O[C@H]1CC[C@H]2[C@@H]3CCc4cc(O)ccc4[C@H]3CC[C@]12C	6.8%
COc1ccc(C(=S)N2CCOCC2)cc1OC(=O)c1cc(OC)c(OC)c(OC)c1	14.5%
Cc1noc(C)c1COC(=O)c1ccccc1Oc1ccccc1	21.6%
C=CCn1c(N)c(C(=O)NCC2CCCO2)c2nc3ccccc3nc21 (centres unmarked)	11.5%
COc1ccc(-c2nn(-c3ccccc3)cc2C(=O)Nc2nccs2)cc1OC	7.02%

SMILES	hERG current change (%, negative = inhibition) at 1uM
Cc1cccc(C)c1OCC(=O)N/N=C/c1cccnc1	4.85%
CSc1nc(N)nc(C(C)C)n1	9.8%
Cc1[nH]nc(N2CCCCCC2)c1[N+](=O)[O-]	16.7%
CCN(C(=O)COC(=O)c1cc(=O)[nH]c2ccccc12)C1CCS(=O)(=O)C1 (centres unmarked)	12.2%
COC(=O)c1ccc(N2CCN(c3ccccc3)CC2)c(N)c1	12.9%
CCC(NC(=O)NC1=NCCS1)(C(F)(F)F)C(F)(F)F	6.93%
CCOC(=O)C(C)Sc1nc2c(cnn2-c2ccc(C)cc2)c(=O)[nH]1 (centres unmarked)	6.98%
Cn1nc(C(F)(F)F)c(C(=O)Nc2ccc(F)cc2)c1Cl	13.3%
O=C(Nc1ccc(NC(=O)c2cc([N+](=O)[O-])ccc2N2CCOCC2)cc1)c1cccs1	2.89%
N#Cc1sc(NCc2cccc(Cl)c2)nc1Cl	4.66%
O=C(COc1ccc(Br)cc1Cl)N1CCN(c2ccccn2)CC1	4.01%
O=C(NCCC1CCCCN1S(=O)(=O)c1ccccc1)C(=O)Nc1ccccc1F (centres unmarked)	11.4%
CN(CCC1CCOCC1)Cc1nc(Cc2ccccc2F)no1	11%
CCOC(=O)c1nn(-c2cccc(C)c2)cc1C(=O)c1ccccc1	-0.722%
Cn1nc(C(=O)OCCN2C(=O)c3ccccc3C2=O)c2ccccc2c1=O	7.29%
Cc1cc(C)cc(C(=O)N(c2ccccn2)C(C)c2ccco2)c1 (centres unmarked)	12.9%
CN(C)N1C(N)=C(C#N)C(c2cccs2)C2=C1CC(C)(C)CC2=O (centres unmarked)	8.64%
CCn1ncc(/C=C/C(=O)c2ccccc2)c1C	-0.474%
CCCCOc1ccc(S(=O)(=O)N2CCN(c3ccc(N4CCN(CC)CC4)nn3)CC2)cc1	15.2%
CS(=O)(=O)N(CC(=O)Nc1ccccc1-c1ccccc1)c1ccccc1	16.1%
CCCCC(=O)NC(=S)Nc1ccc(S(=O)(=O)N2CCCC2)cc1	-2.76%
Cc1c(NC(=O)C(C)NCC2CCCO2)c(=O)n(-c2ccccc2)n1C (centres unmarked)	10.5%
COc1ccc(NC2=Nc3cccc4cccc2c34)cc1OC	10.8%

SMILES	hERG current change (%, negative = inhibition) at 1uM
Cc1cccc(NC(=O)C2CCC(CNC(=O)[C@@H]3Cc4ccccc4CN3)CC2)c1 (some centres unmarked)	11.2%
O=C(N/N=C/c1cccc(F)c1)c1c(O)c2ccccc2[nH]c1=O	12.8%
CCCCN(CC)C(=O)c1n[nH]c(=O)c2ccccc12	2.17%
COc1ccccc1C(=O)NCCC(=O)Nc1ccc(S(=O)(=O)N2CCC(C)CC2)cc1	7.93%
COc1ccc(NC(=O)c2cc(-c3ccco3)nc3ccccc23)cc1	12.1%
Cc1cc(C)nc(/N=C(\N)Nc2ccccc2-c2ccccc2)n1	-12.7%
O=C(O)CC/C(=N\Nc1ccc([N+](=O)[O-])cc1)c1ccccc1	16.5%
Cc1cccc2sc(NC(=O)CN(C)S(=O)(=O)c3cccs3)nc12	4.9%
CCOc1ccc(C(=O)NCC(=O)Nc2ncccc2C)cc1OCC	15.4%
COCc1cc(C)nc(N2CCOCC2)c1C#N	9.51%
COc1ccc(NS(=O)(=O)c2cccc(C(=O)NCC3(N4CCOCC4)CCCCC3)c2)cc1	11%
CCc1ccccc1OCC(=O)OCC(=O)c1c(N)n(C)c(=O)n(C)c1=O	0.475%
Cn1cccc1/C=C1\SC(=S)N(CC(=O)O)C1=O	10.6%
COc1cccc(COc2ccc3ccc(=O)oc3c2)c1	10.6%
O=C(NCCCSc1ccccc1)c1cccnc1	0.92%
COc1ccc(NC(=O)CCOc2ccccc2)c(OC)c1	-5.98%
CCCCOc1ccc(CN2CCSCC2)cc1	15.2%
Cn1nc(C(=O)NNC(=O)c2ccc(Cl)c(S(N)(=O)=O)c2)c2ccccc2c1=O	13.2%
COc1cc2c(C(=O)N3CCN(Cc4ccc5c(c4)OCO5)CC3)cn(C)c(=O)c2cc1OC	-6.06%
Cc1ccc(C)c(OCC(=O)NNC(=O)c2ccc(NC(=O)C3CC3)cc2)c1	9.74%
